# Reference: PubChem BioAssay (NCATS)
# “And” between values parts separate entries of the source, which are not always exact repeats. Equal values may be shown once. Inconclusive means that the source gave no clear call. Such entries were picked first, then a sample of the others. Where the call is inconclusive, the potency comes from a doubtful curve fit. The source made the active and inactive calls. Calls follow the shape of the dose curve; as a rule, active = well fitted curve in the direction sought with a large enough effect; inconclusive = small, poorly fitted or top-dose-only effect, or another doubt; inactive = no such curve, though single readings can be large; an effect the other way counts as inactive or inconclusive.
# How the values were obtained:
# [1] = Primary qHTS for inhibitors of nuclear receptor binding SET domain protein 2 (NSD2) in an isogenic RCH-ACV NSD2 p.E1099K mutant (9B) (AID 1645876); also: nearly all actives have a fitted effect of over 70% in size
# [2] = Primary qHTS for inhibitors of nuclear receptor binding SET domain protein 2 (NSD2) in an RCH-ACV wild type WT cells (2C) (AID 1645877); details: activity change, negative = cell killing: at 44.9 µM (top of the series) unless noted; also: nearly all actives have a fitted effect of over 70% in size
# [3] = Primary fluorescence-based thiol-reactive (MSTI) qHTS assay for identification of artifact compounds. (AID 1845221);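 also: thiol-reactive compounds lower the probe fluorescence signal; nearly all actives have a fitted effect of over 65% in size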
# How it was run: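 qHTS titration of compound; 4 uM MSTI, PBS pH 7.4, 2% DMSO; 1 h RT, dark; fluorescence 525/598 nm; normalized to Acetyl-MSTI and MSTI; 4-parameter Hill fit.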
# HaCat = test: Cytotoxic Profiling of Annotated Libraries Using Quantitative High-Throughput Screening (AID 1296008); details: Five cell lines viability, CellTiter-Glo ATP luminescence, 48-72 h; max response: stronger effect = lower value; also: nearly all actives have a fitted effect of over 60% in size; as to max response: % is scaled to controls: 0 for no effect and ±100 for the full control effect
# How it was run: (§1)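 Cytotoxicity was measured as CellTiter-Glo ATP luminescence, read after 10 min at room temperature. Compound treatment of the cells lasted 48 or 72 hr at 37 degrees Celsius in a qHTS format.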
# NIH3T3 = test: as above; details: Five cell lines viability, CellTiter-Glo ATP luminescence, 48-72 h; max response: stronger effect = lower value
# How it was run: as §1
# SKOV3 = test: Primary qHTS to identify gynecologic anti-cancer compounds using libraries of approved drugs and bioactive compounds (AID 1345084); details: Gynecologic cancer cell panel viability, ATPlite luminescence, 48 h; series mostly up to 57.5 µM; also: nearly all actives have a fitted effect of over 55% in size; as to activity change, negative = cytotoxicity: % is scaled to controls: 0 for no effect and ±100 for the full control effect
# How it was run: (§2)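 Cells, 1,000 per well, were allowed to settle for 16 h at 37 C before compound addition. Five concentrations were tested for 48 h, and viability was read by ATPlite luminescence after 15 min at room temperature.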
# [4] = P-glycoprotein substrates identified in KB-8-5-11 adenocarcinoma cell line, qHTS therapeutic library screen (AID 1346987); also: nearly all actives have a fitted effect of over 65% in size
# How it was run: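 P-gp-mediated resistance screen: KB-8-5-11 cells treated 72 h with compounds in dose-response. CellTiter-Glo viability.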
# HeLa = test: Primary qHTS to identify gynecologic anti-cancer compounds using libraries of approved drugs and bioactive compounds (AID 1345084); details: Gynecologic cancer cell panel viability, ATPlite luminescence, 48 h; activity change, negative = cytotoxicity: at 57.5 µM (top of the series); also: nearly all actives have a fitted effect of over 55% in size; as to activity change, negative = cytotoxicity: % is scaled to controls: 0 for no effect and ±100 for the full control effect
# How it was run: as §2
# Hek293T = test: as above; details: Gynecologic cancer cell panel viability, ATPlite luminescence, 48 h, control line for the selectivity index; activity change, negative = cytotoxicity: at 57.5 µM (top of the series) unless noted
# How it was run: as §2
# JEG-3 = test: as above; details: Gynecologic cancer cell panel viability, ATPlite luminescence, 48 h; series mostly up to 57.5 µM
# How it was run: as §2
# Tov-21-G = test: as above; details: Gynecologic cancer cell panel viability, ATPlite luminescence, 48 h; activity change, negative = cytotoxicity: at 57.5 µM (top of the series) unless noted
# How it was run: as §2
# Tov112D = test: as above; details: Gynecologic cancer cell panel viability, ATPlite luminescence, 48 h; series mostly up to 57.5 µM
# How it was run: as §2
# [5] = Primary redox qHTS assay for identification of artifact compounds. (AID 1845223); details: Amplex Red/HRP redox cycling with DTT, fluorescence; redox activity (% of DA3003): at 53.8 µM (top of the series)
# How it was run: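 Amplex Red (25 uM) and HRP (250 mU/mL) in HBSS, with compounds for 15 min, then 250 uM DTT for 30 min, room temperature, dark. Fluorescence 525/598 nm read; normalized to DMSO and 10 uM DA3003; Hill fit.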
# C33A = test: Primary qHTS to identify gynecologic anti-cancer compounds using libraries of approved drugs and bioactive compounds (AID 1345084); details: Gynecologic cancer cell panel viability, ATPlite luminescence, 48 h; series mostly up to 57.5 µM; also: nearly all actives have a fitted effect of over 55% in size; as to activity change, negative = cytotoxicity: % is scaled to controls: 0 for no effect and ±100 for the full control effect
# How it was run: as §2
# CAOV3 = test: as above; details: Gynecologic cancer cell panel viability, ATPlite luminescence, 48 h; activity change, negative = cytotoxicity: at 57.5 µM (top of the series)
# How it was run: as §2
# Es-2 = test: as above; details: Gynecologic cancer cell panel viability, ATPlite luminescence, 48 h; series mostly up to 57.5 µM
# How it was run: as §2
# OV90 = test: as above; details: Gynecologic cancer cell panel viability, ATPlite luminescence, 48 h; series mostly up to 57.5 µM
# How it was run: as §2
# PA-1 = test: as above; details: Gynecologic cancer cell panel viability, ATPlite luminescence, 48 h; series mostly up to 57.5 µM
# How it was run: as §2
# CASKI = test: as above; details: Gynecologic cancer cell panel viability, ATPlite luminescence, 48 h; series mostly up to 57.5 µM
# How it was run: as §2
# Potency is read from the fitted curve at half-maximal effect; tags tell the direction and shape of the fitted curve.
structure (smiles),measurement,setting,value
CC(=O)OC[C@]1(O)[C@H]2[C@H](OC(=O)CC(C)C)OC=C(CO[C@@H]3O[C@H](CO)[C@@H](O)[C@H](O)[C@H]3O)[C@H]2C[C@@H]1O,Potency,[1],inactive
same,Potency,[2],"inconclusive: 7.96 µM [inhibitor, single point]"
same,Potency,[3],"inconclusive: 9.22 µM [inhibitor, partial curve, poor fit]"
same,max response,HaCat,inactive: -3.61%
same,outcome,NIH3T3,inactive
same,Potency,SKOV3,inactive
CCCN(CCC)S(=O)(=O)c1ccc(C(=O)O)cc1,Potency,[4],inactive
same,Potency,HaCat,active: 18.8 µM
same,Potency,NIH3T3,"inconclusive: 33.5 µM [inhibitor, single point]"
Nc1nc(Nc2ccc(S(N)(=O)=O)cc2)n(C(=S)Nc2c(F)cccc2F)n1,Potency,[4],active: 1.16 µM
same,Potency,HaCat,"inconclusive: 29.1 µM [inhibitor, single point]"
same,Potency,NIH3T3,"inconclusive: 16.4 µM [inhibitor, single point]"
same,Potency,HeLa,active: 15.8 µM
same,Potency,Hek293T,"inconclusive: 35.5 µM [cytotoxic, single point]"
same,Potency,JEG-3,inactive
same,Potency,SKOV3,inactive
same,Potency,Tov-21-G,"inconclusive: 31.6 µM [cytotoxic, single point]"
same,Potency,Tov112D,"inconclusive: 39.8 µM [cytotoxic, single point]"
CC1CCC2(NC1)OC1CC3C4CC=C5CC(O[C@@H]6O[C@H](CO)[C@@H](O[C@@H]7O[C@@H](C)[C@H](O)[C@@H](O)[C@H]7O)[C@H](O)[C@H]6O[C@@H]6O[C@@H](C)[C@H](O)[C@@H](O)[C@H]6O)CCC5(C)C4CCC3(C)C1C2C (stereo not given in full),Potency,[4],"inconclusive: 6.93 µM [inhibitor, single point]"
same,Potency,[1],active: 3.46 µM
same,"activity change, negative = thiol reactive",[3],inactive: 179% [at 11.5 µM]
same,Potency,[5],"inconclusive: 4.5 µM [activator, partial curve, poor fit]"
same,Potency,HaCat,"inconclusive: 6.93 µM [inhibitor, single point]"
same,Potency,NIH3T3,"inconclusive: 4.91 µM [inhibitor, single point]"
same,Potency,C33A,"inconclusive: 7.94 µM [cytotoxic, single point]"
same,Potency,CAOV3,"inconclusive: 6.31 µM [cytotoxic, single point]"
same,Potency,Es-2,"inconclusive: 5.01 µM [cytotoxic, single point]"
same,Potency,OV90,"inconclusive: 11.2 µM [cytotoxic, single point]"
same,Potency,PA-1,"inconclusive: 11.2 µM [cytotoxic, single point]"
same,Potency,SKOV3,"inconclusive: 11.2 µM [cytotoxic, single point]"
O=c1[nH]c(=O)n([C@H]2CCCO2)cc1F,Potency,[2],"inconclusive: 33.5 µM [inhibitor, single point]"
same,Potency,HaCat,"inconclusive: 33.5 µM [inhibitor, single point]"
same,Potency,NIH3T3,"inconclusive: 18.8 µM [inhibitor, partial curve, poor fit]"
same,Potency,Es-2,inactive
O=C1NC(=O)C(c2cn3c4c(cccc24)CCC3)C1c1c[nH]c2ccccc12 (stereo not given),Potency,[4],active: 1.3 µM
same,Potency,[2],active: 0.916 µM
same,Potency,HaCat,"inconclusive: 0.92 µM [inhibitor, full curve]"
same,Potency,NIH3T3,"inconclusive: 4.11 µM [inhibitor, full curve]"
same,Potency,C33A,active: 20 µM
same,Potency,Hek293T,"inconclusive: 2.82 µM [cytotoxic, full curve]"
same,Potency,JEG-3,"inconclusive: 6.31 µM [cytotoxic, partial curve]"
same,Potency,OV90,"inconclusive: 3.55 µM [cytotoxic, full curve, poor fit]"
same,Potency,PA-1,active: 3.16 µM
same,Potency,SKOV3,"inconclusive: 1.26 µM [cytotoxic, full curve, poor fit]"
same,Potency,Tov-21-G,"inconclusive: 3.16 µM [cytotoxic, full curve]"
C[C@@]1(O)[C@H](O)[C@@H](CO)O[C@H]1n1ccc(N)nc1=O,Potency,HaCat,"inconclusive: 29.1 µM [inhibitor, single point]"
same,Potency,NIH3T3,"inconclusive: 25.9 µM [inhibitor, single point]"
same,Potency,SKOV3,"inconclusive: 8.91 µM [rising, single point]"
CCC(C)(OC(C)=O)C(=O)O[C@H]1[C@H](OC(C)=O)[C@]2(CO)[C@H](O)[C@H](O)[C@]3(C)C(=CCC4[C@@]5(C)CC[C@H](O[C@@H]6O[C@H](C(=O)O)[C@@H](O)[C@H](O[C@@H]7OC[C@H](O)[C@H](O[C@@H]8OC[C@H](O)[C@H](O)[C@H]8O)[C@H]7O)[C@H]6O[C@@H]6O[C@H](CO)[C@@H](O)[C@H](O)[C@H]6O)C(C)(C)C5CC[C@]43C)[C@@H]2CC1(C)C (stereo not given in full),Potency,[1],"inconclusive: 3.07 µM [inhibitor, single point]"
same,Potency,[2],active: 2.44 µM
same,Potency,HaCat,"inconclusive: 0.0078 µM [inhibitor, full curve, poor fit]"
same,Potency,NIH3T3,"inconclusive: 4.9 µM [inhibitor, single point]"
same,Potency,C33A,"inconclusive: 6.31 µM [cytotoxic, single point]"
same,Potency,CAOV3,inconclusive: 3.16 µM
same,Potency,CASKI,"inconclusive: 6.31 µM [cytotoxic, single point]"
same,Potency,OV90,"inconclusive: 3.16 µM [cytotoxic, single point]"
Cc1cccc(OCC(O)CNC(C)(C)C)c1C (stereo not given),Potency,[2],inactive
same,outcome,HaCat,inactive
same,max response,NIH3T3,inactive: 0.115%
same,Potency,CASKI,inactive
same,Potency,Tov112D,inactive
CCOC(=O)C1=C(C)NC(C)=C(C(=O)OCC)C1c1ccccc1/C=C/C(=O)OC(C)(C)C,Potency,[2],active: 16.8 µM
same,Potency,HaCat,"inconclusive: 33.5 µM [inhibitor, single point]"
same,Potency,NIH3T3,"inconclusive: 29.9 µM [inhibitor, single point]"
same,Potency,C33A,"inconclusive: 28.2 µM [cytotoxic, single point]"
same,Potency,CAOV3,"inconclusive: 39.8 µM [cytotoxic, single point]"
same,Potency,CASKI,"inconclusive: 39.8 µM [cytotoxic, single point]"
same,Potency,SKOV3,"inconclusive: 39.8 µM [cytotoxic, single point]"
CCCN(CCC)C(=O)C(CCC(=O)O)NC(=O)c1ccccc1 (stereo not given),max response,HaCat,inactive: 4.34%
same,max response,NIH3T3,inactive: -2.14%
same,Potency,Hek293T,inactive
same,Potency,SKOV3,inactive
Oc1ccc([C@H]2COc3cc(O)ccc3C2)cc1,Potency,[1],"inconclusive: 5.15 µM [inhibitor, partial curve]"
same,Potency,[2],"inconclusive: 7.28 µM [inhibitor, partial curve]"
same,outcome,HaCat,inactive
same,max response,NIH3T3,inactive: 3.41%
same,Potency,HeLa,"inconclusive: 20 µM [cytotoxic, single point]"
COc1cc(N2CCC(O)CC2)ccc1Nc1cc(Nc2ccccc2S(=O)(=O)C(C)C)c2cc[nH]c2n1,Potency,[1],"inconclusive: 29.1 µM [inhibitor, single point]"
same,Potency,[2],"inconclusive: 29.1 µM [inhibitor, single point]"
same,Potency,[3],active: 0.927 µM
same,Potency,HaCat,"inconclusive: 7.18 µM [inhibitor, partial curve]"
same,Potency,NIH3T3,"inconclusive: 6.4 µM [inhibitor, partial curve] and active: 4.67 µM"
same,Potency,CASKI,inactive
same,Potency,Hek293T,inactive
same,Potency,PA-1,"inconclusive: 28.2 µM [cytotoxic, single point]"
